PubChem BioAssay AID686970 (National Center for Advancing Translational Sciences (NCATS), 2013)
The whole screen tested about 360,000 compounds, of which about 6,000 (1.7%) were called active. The inconclusive results got no clear call from the source; some entries with a clear call stand among them for comparison. The call rests on the fitted dose curve; in most records, active means well fitted cell-killing curve with a large enough effect; inconclusive means small, poorly fitted or top-dose-only effect, or effect the other way; inactive means flat fitted curve, though single readings scatter. No potency is given beside an inconclusive call; the fits are too rough.
Potency means the concentration at half of the fitted maximal effect; tags describe the fitted curve by direction and shape.

Assay: qHTS for induction of synthetic lethality in tumor cells producing 2HG: qHTS for the HT-1080-NT fibrosarcoma cell line;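 further: NT is the 2HG producing partner of a matched IDH1 knockdown line; nearly all actives have a fitted effect of over 55% in size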;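 on activity, negative = less viability: 0% = DMSO-treated cells and -100% = media-only wells without cells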
Settings: HT-1080-NT fibrosarcoma viability, CellTiter-Glo ATP luminescence, 48 h; activity, negative = less viability: at 46.1 µM (top of the series) unless noted
In short: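 Compounds were tested in concentration-response format on HT-1080-NT cells for 48 hours at 37 degrees C. Cell viability came from CellTiter-Glo luminescence; curves were classified by r2, response magnitude and activity.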
With COc1ccc(Cl)cc1NC(=S)N(CCCN1CCOCC1)Cc1cn(C)c2ccccc12 the Potency was inconclusive [cytotoxic, single point]. For COc1cc(-c2c(-c3ccc4c(c3)OCO4)noc2C)ccc1F, the Potency was inconclusive [cytotoxic, single point]. With O=[N+]([O-])c1ccc(-c2cn3nc(-c4ccccc4)c(-c4ccccc4)nc3n2)cc1 the Potency was inconclusive [rising, partial curve]. For COc1ccc(/C=N/NC(=O)c2ccc(COc3ccccc3Cl)o2)cc1, the activity, negative = less viability was inconclusive: -30.3% [cytotoxic]. For CC(=O)N(C)C1=C(N2CCOCC2)C(=O)c2ccccc2C1=O, the Potency was active: 1.58 µM. In the case of CC(=O)Nc1ccc(S(=O)(=O)Nc2nc3ccccc3nc2Nc2cccc(S(N)(=O)=O)c2)cc1, the “activity, negative = less viability” value is reported as inactive: 1.24%. In the case of O=C(N/N=C/c1ccccc1OCc1ccccc1Cl)c1cccnc1, the Potency is reported as inconclusive [cytotoxic, single point]. With COc1ccc(C(=O)Nc2cccc3c2CCCC3)cc1 the activity, negative = less viability was inconclusive: -27.1% [cytotoxic]. In the case of O=[N+]([O-])C1C(c2ccccc2)C12c1ccccc1-c1ccccc12 (stereo unspecified), the Potency is reported as active: 5.8 µM. With CCOC(=O)CSC1=NC(=O)/C(=C/c2ccc(Br)cc2)S1 the Potency was inconclusive [cytotoxic, single point]. In the case of CCOc1ccccc1NC(=O)C1CCN(C(=O)Cc2ccccc2)CC1, the “activity, negative = less viability” value is reported as inactive: 0.206%. For Cc1cccc(-c2cnc(C(O)c3ccc(Cl)cc3C)[nH]2)c1 (stereo unspecified), the Potency was inconclusive [cytotoxic, single point]. With CCCNc1c(NS(=O)(=O)c2c(F)c(F)c(F)c(F)c2F)c(=O)oc2ccccc12 the Potency was inconclusive [cytotoxic, single point]. In the case of CCOC(=O)C1=C(CN2CCCCCC2)NC(=O)NC1c1ccc2c(c1)OCO2 (stereo unspecified), the “activity, negative = less viability” value is reported as inactive: 17.7%. With Cc1nn(C(C)(C)C)c(OC(=O)C2CCCC2)c1S(=O)(=O)c1ccccc1 the Potency was inconclusive [cytotoxic, single point]. In the case of COc1ccc(-c2cc(C(=O)NCc3ccc(C(F)(F)F)cc3)[nH]n2)c(C)c1, the Potency is reported as inconclusive [cytotoxic, single point]. For CC(C)(C)c1ccc(C(=O)NC(=S)N2CCCCCC2)cc1, the Potency was inconclusive [cytotoxic, single point]. In the case of COc1ccc2nc(SCC(=O)NC3CCCCC3C)[nH]c2c1 (stereo unspecified), the Potency is reported as inconclusive [cytotoxic, partial curve]. In the case of O=C(CSc1ncnc2nc[nH]c12)c1ccc2ccccc2c1, the Potency is reported as active: 23.1 µM. With COc1ccccc1N1CCN(S(=O)(=O)CCNC(=O)c2cc(OC)c(OC)c(OC)c2)CC1 the Potency was inconclusive [cytotoxic, single point]. With CCN(CC)CCNC(=O)c1ccc(NC(=O)c2cc(-c3ccncc3)nc3ccccc23)cc1 the Potency was inconclusive [cytotoxic, single point]. In the case of CC(=O)Nc1ccc(-c2nn[nH]n2)cc1, the activity, negative = less viability is reported as inconclusive: 30.1%. For O=C(CCN1CCc2ccccc2C(c2ccccc2)C1)c1ccc2c(c1)OCCO2 (stereo unspecified), the Potency was inconclusive [cytotoxic, single point]. For CCn1nc(C)c(/C=N/NC(=O)c2c[nH]c3ccccc23)c1C, the activity, negative = less viability was inconclusive: 31.6%. With COC(=O)c1ccc(Nc2cc(C)nc3ccc(C)cc23)cc1 the Potency was active: 20.6 µM. In the case of N#Cc1ccsc1NC(=O)CN1C(=O)NC2(CCCCC2)C1=O, the “activity, negative = less viability” value is reported as inactive: 0%. For CC1CCC2C(=O)N(c3ccc(NC4CCN(Cc5ccccc5)CC4)c([N+](=O)[O-])c3)C(=O)C2C1 (stereo unspecified), the “activity, negative = less viability” value was inactive: 26.7%. For N#CCCN1CCCc2cc(N=Nc3ccc(C(F)(F)F)cc3)ccc21, the Potency was inconclusive [cytotoxic, single point]. In the case of Oc1c(Br)cc(Br)cc1/C=N/N1CCN(Cc2ccccc2)CC1, the “activity, negative = less viability” value is reported as inactive: -1.95%. For CC1CCc2sc(C(=O)NC3CCN(Cc4ccccc4)CC3)cc2C1 (stereo unspecified), the “activity, negative = less viability” value was inactive: -20.8%. In the case of C[C@@H]1CN([C@H](C)CO)C(=O)c2cccc(NC(=O)Nc3ccc(F)cc3)c2O[C@H]1CN(C)C(=O)Nc1ccc(C(F)(F)F)cc1, the Potency is reported as inconclusive [cytotoxic, single point]. In the case of C[C@@]12C(=O)Nc3cc(F)c(F)cc3C(=O)N1[C@H]1c3cc(Cl)ccc3OC[C@@H]1[C@@H]2c1ccccc1, the Potency is reported as inconclusive [cytotoxic, single point]. For COc1ccc(NC(=O)Cc2c(SC)c3ccccc3n2Cc2ccccc2)cc1, the Potency was inconclusive [cytotoxic, single point]. In the case of CC(C)(C)NC(=O)COC(=O)c1ccccc1Oc1ccccc1, the “activity, negative = less viability” value is reported as inactive: -0.0468%. For Cn1cc(/C=N/n2cnc3scc(-c4ccccc4)c3c2=O)c2ccccc21, the Potency was inconclusive [cytotoxic, full curve]. For Cc1ccc2nc(N(CCCN(C)C)C(=O)c3ccc(Br)s3)sc2c1, the Potency was inconclusive [cytotoxic, single point]. In the case of Cc1ccc(NC(=O)CN(C)C(=O)CCC(=O)N2CCOCC2)cc1, the “activity, negative = less viability” value is reported as inactive: 11.8%. With CCN(CC)c1ccc(/C=N/NC(=O)c2nnn(-c3nonc3N)c2C(C)C)c(O)c1 the Potency was inconclusive [cytotoxic, partial curve, poor fit]. With CSc1nc2c(c(-c3ccc(O)cc3)c1C#N)CCC2 the Potency was inconclusive [cytotoxic, single point]. In the case of O=C(CSc1nnc(NC(=O)C2CCC2)s1)Nc1ccccc1F, the “activity, negative = less viability” value is reported as inactive: -24.1%. In the case of O=C(NCC1CCCO1)c1ccc(S(=O)(=O)N2CCC(c3nc4ccc(Cl)cc4[nH]3)CC2)cc1 (stereo unspecified), the Potency is reported as inconclusive [cytotoxic, single point]. In the case of CN1CCN(c2ccccc2NC(=O)c2ccc(-c3ccc(Br)cc3)o2)CC1, the Potency is reported as inconclusive [cytotoxic, full curve]. In the case of CC12C=CC(=O)C=C1CCC1C3CCC(O)(C(=O)CO)C3(C)CC(O)C12F (stereo unspecified), the Potency is reported as inconclusive [rising, full curve, poor fit]. In the case of CCN(CC)CC(=O)N1c2ccccc2CCc2ccc(NC(=O)c3cc(OC)c(OC)c(OC)c3)cc21, the “activity, negative = less viability” value is reported as inactive: -26.1%. With O=C1c2[nH]nc(-c3ccccc3O)c2C(c2cccc(Cl)c2)N1Cc1ccco1 (stereo unspecified) the Potency was inconclusive [cytotoxic, single point]. For O=C(CSc1nnc(-c2ccncc2)o1)N1CCCC1, the “activity, negative = less viability” value was inactive: 15.1%. With CCSc1nnc(NC(=O)C2CCCCC2C(=O)OCC(F)(F)C(F)F)s1 (stereo unspecified) the Potency was inconclusive [cytotoxic, partial curve, poor fit]. For COc1ccc(CNC(=O)c2coc(=O)c3ccccc23)cc1, the activity, negative = less viability was inconclusive: -32.3% [cytotoxic]. For O=C(c1cnn2c(C(F)F)cc(-c3ccccc3)nc12)N1CCc2ccccc21, the “activity, negative = less viability” value was inactive: 1.89%. For CCCOP(=O)(OCCC)C1(Nc2ccc(C)cc2)CCCCC1, the “activity, negative = less viability” value was inactive: -16%. For Cc1ccc2nc(SCC(=O)Nc3cc(C)on3)c(C)cc2c1, the “activity, negative = less viability” value was inactive: -4.04%. With O=c1c2c(nc3c(-c4ccc(Cl)cc4)c[nH]n13)CCCC2 the Potency was inconclusive [cytotoxic, full curve]. For O=C(NC1=NCCS1)c1ccccc1Cl, the Potency was inconclusive [rising, single point]. For COC(=O)[C@]1(CC(C)C)N[C@H](c2ccc(-c3ccc(OC)cc3)cc2)[C@@H]2C(=O)N(C)C(=O)[C@@H]21, the Potency was inconclusive [cytotoxic, partial curve]. For C[C@H]1CN([C@@H](C)CO)C(=O)CCCn2nncc2CO[C@@H]1CN(C)Cc1ccc(Cl)c(Cl)c1, the “activity, negative = less viability” value was inactive: 7.93%. In the case of Cc1cc(C(=O)Nc2ccc3c(c2)OCO3)cs1, the Potency is reported as inconclusive [cytotoxic, single point]. With CC(C)CCNC1=CC(=O)CC(c2ccccc2)C1 (stereo unspecified) the Potency was inconclusive [cytotoxic, single point]. With COc1ccc(-n2c(SCC(N)=O)nnc2-c2ccc(NS(=O)(=O)c3ccc(C)cc3)cc2)cc1 the Potency was inconclusive [cytotoxic, single point]. For CCc1nc(CNC(=O)C2CCC(=O)N(Cc3ccccc3F)C2)no1 (stereo unspecified), the Potency was inconclusive [rising, single point]. In the case of CCOC(=O)c1c(-c2ccc(C)cc2C)csc1NC(=O)CSc1nnnn1C, the Potency is reported as inconclusive [cytotoxic, single point]. In the case of COc1cc(-c2cc(NC(C)=O)c3ncc(-c4cc(OC)c(OC)c(OC)c4)n3c2)cc(OC)c1OC, the Potency is reported as active: 23.1 µM. With C/C(=N/Nc1nc(C)cc(-c2ccccc2)n1)c1ccco1 the “activity, negative = less viability” value was inactive: -6.16%. In the case of COc1ccc(C(=O)NC2CCCCCC2)cc1S(=O)(=O)Nc1ccc(Br)cc1, the activity, negative = less viability is reported as inconclusive: -30.1% [cytotoxic]. For O=C(N/N=C/c1ccccn1)c1cc(-c2ccccc2)nc2ccccc12, the “activity, negative = less viability” value was inactive: 0.0425%. For CCCc1nnc(SCC(=O)N2C(C)CCCC2C)n1CC1CCCO1 (stereo unspecified), the “activity, negative = less viability” value was inactive: -0.132%. In the case of CC(=O)Nc1ccc(NC(=O)C2Cc3c(-c4ccc(Cl)cc4)ccnc3O2)cc1 (stereo unspecified), the Potency is reported as inconclusive [cytotoxic, partial curve]. For CN(CC(=O)Nc1ccc(N2CCOCC2)cc1)C(=O)c1cc(F)c(F)cc1Cl, the “activity, negative = less viability” value was inactive: 18%. With O=C(CSc1cc(Cl)ccc1Cl)NCCCn1ccnc1 the Potency was inconclusive [cytotoxic, partial curve, poor fit]. In the case of O=C1C(Cl)=C(NCCN2CCCCC2)C(=O)c2ccccc21, the Potency is reported as active: 14.6 µM. In the case of O=C(C1CCCCC1)N1CCN(S(=O)(=O)c2cccc([N+](=O)[O-])c2)CC1, the “activity, negative = less viability” value is reported as inactive: -3.24%. For N#C/C(=C\N1CCN(Cc2ccc3c(c2)OCO3)CC1)c1nc2ccccc2s1, the Potency was inconclusive [cytotoxic, single point].
